Reference: PubChem BioAssay AID493208 (National Center for Advancing Translational Sciences (NCATS), 2011)
Out of some 44,000 compounds screened, about 340 (0.77%) were called active. Not shown: some 5% with an inconclusive outcome. Calls follow the shape of the dose curve; as a rule, active = well fitted inhibition curve with a large enough effect; inconclusive = small, poorly fitted or top-dose-only effect; inactive = flat fitted curve, though single readings scatter. The list shows a part of the results.

Experiment: Acumen qHTS Assay for Inhibitors of the mTORC1 Signaling Pathway in MEF (Tsc2-/-, p53-/-) Cells: Sytravon;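 also: plate controls were DMSO for no effect and rapamycin for full effect; nearly all actives have a fitted effect of over 50% in size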
Conditions: phospho-rpS6 immunofluorescence/PI, 24 h; series mostly up to 38.3 µM; activity change, negative = inhibition: at the top concentration
Method in brief: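 Compounds act on Tsc2-/-, p53-/- fibroblasts carrying an empty vector for 24 h before fixation and dual staining for phospho-S6 and DNA (propidium iodide). Values are percentages of cells above a rapamycin-defined pS6/PI threshold.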

SMILES | activity change, negative = inhibition
CCN1CCN(c2nnc(-n3cccc3C(=O)NCc3ccccc3OC)s2)CC1 | inactive: 5.68%
COc1ccc(NC(=O)C2CCN(C3=NS(=O)(=O)C(c4ccc(C)c(C)c4)=C3C)CC2)c(OC)c1 | inactive: -19.4%
COc1cccc(CNC(=O)C2CCN(S(=O)(=O)c3c(C)noc3/C=C/c3cccs3)CC2)c1 | inactive: 3.32%
O=C(NCCc1csc(-c2cccc(F)c2)n1)C(=O)Nc1cc(F)ccc1F | inactive: 0.473%
Cc1ccc(C)c(NC(=O)Cc2coc3cc(C)cc(C)c23)c1 | inactive: -7.72%
O=C(c1cc2ccc3cccnc3c2[nH]1)N1CCCCC1 | inactive: 3.74%
COc1ccc(C)cc1NS(=O)(=O)c1cnc(N)nc1 | inactive: 0%
CCOC(=O)c1sc2ncn(CC(=O)Nc3cc(Cl)ccc3C)c(=O)c2c1C | inactive: -5.84%
CCOC(=O)c1cc2c(=O)n3ccccc3nc2n(CC2CCCO2)c1=NC(=O)c1ccccc1Br (stereo unspecified) | inactive: 0.0172%
CC(=O)Nc1cccc(NC(=O)CSc2nccn2Cc2ccc3c(c2)OCO3)c1 | inactive: -0.181%
CC(=O)c1ccc(N2CCN(C(=O)c3cc(S(=O)(=O)N4CCCCCC4)cn3C)CC2)cc1 | inactive: -10.1%
Cc1cccc(NC(=O)CSc2ccc(-c3sc(-c4ccccc4)nc3C)nn2)c1C | inactive: 0.145%
Cc1cc(C(=O)Nc2c(C)cccc2C)n(-c2ccccc2)n1 | inactive: -5.04%
O=C(OCc1cc(=O)n2nc(-c3cccs3)sc2n1)c1cccc(F)c1 | inactive: -6.47%
COCCCNC(=O)c1ccc(Cn2c(SCc3ccc(F)cc3)nc3cccnc32)cc1 | inactive: -6.5%
Cc1ccc(S(=O)(=O)c2nnn3c2nc(NC2CCCCCC2)c2sccc23)cc1C | inactive: -8.96%
CC(C)c1nn2c(=O)cc(COC(=O)C3CCCCC3)nc2s1 | inactive: -3.65%
CCCOc1cccc(C2c3c(oc4ccc(F)cc4c3=O)C(=O)N2CCCN2CCOCC2)c1 (stereo unspecified) | inactive: -9.31%
Cc1ccc(CN(Cc2ccco2)C(=O)c2ccccc2Br)o1 | inactive: -8.64%
CCCOc1ccc(-c2nonc2NC(=O)c2ccco2)cc1OCCC | inactive: -8.04%
CC1CCN(C(=O)c2cc3c(=O)n(C)c4cc(Cl)ccc4c3s2)CC1 | inactive: -8.31%
Cc1nc(-c2ccc(S(=O)(=O)N3CCN(c4cccc(C(F)(F)F)c4)CC3)cc2)co1 | inactive: -1.27%
Cc1cc(Br)cc(C)c1NC(=O)c1sc2ncn(Cc3cccc(F)c3)c(=O)c2c1C | inactive: -6.56%
CCNC(=O)c1ccc(C)c(-n2c(C)nc3cccnc32)c1 | inactive: -8.81%

SMILES | activity change, negative = inhibition
Cc1ccc(NC(=O)Cn2c(=O)c3ccc(Cl)cc3n3nncc23)cc1 | inactive: -16.4%
COc1cccc(-c2csc(-c3c(N)c(C(=O)c4ccc5c(c4)OCO5)n4ccccc34)n2)c1 | inactive: 0.158%
CCOc1ccc(C2C(C(=O)Nc3ccccc3)=C(C)Nc3nc(-c4ccccc4)nn32)cc1OC (stereo unspecified) | inactive: -2.14%
O=C(Cn1c(-c2cccs2)cc2ccccc21)N1CCN(c2ccc(Cl)cc2)CC1 | inactive: -1.61%
COc1ccc(-c2cn3c(n2)sc2cc(C(=O)NCCC4=CCCCC4)ccc23)cc1 | inactive: 4.67%
COc1ccc(OC)c(NC(=O)C(C)n2c(=O)cc(C)c3c(C)nn(-c4ccccc4)c32)c1 (stereo unspecified) | inactive: 1.01%
O=c1c2cnn(-c3ccc(F)cc3)c2ncn1Cc1ccccc1Cl | inactive: 1.28%
Cc1cc(C)n(CCc2nc3c4ccccc4nc(SCc4ccc(F)cc4)n3n2)n1 | inactive: 0.942%
Cc1ccc(CNC(=O)c2c[nH]c3ccc(S(=O)(=O)N4CCOCC4)cc3c2=O)cc1 | inactive: -10.9%
Cc1ccc(Cc2cnc(NC(=O)c3ccc4c(c3)CC(c3ccccc3)OC4=O)s2)cc1 (stereo unspecified) | inactive: -3.49%
O=C(NC1CC(=O)N(c2ccc(F)cc2)C1)C1CCCC1 (stereo unspecified) | inactive: 3.41%
Cc1c(C(=O)Nc2ccc(F)cc2F)oc2c1-c1nn(Cc3c(F)cccc3Cl)cc1CC2 | inactive: -0.919%
CC(=O)c1ccc(S(=O)(=O)Nc2ccc(-c3cn4c(C)csc4n3)cc2)cc1 | inactive: 4.25%
COc1ccc(C)cc1NC(c1nnc(-c2ccccc2)o1)c1ccc(F)cc1Cl (stereo unspecified) | inactive: 0.577%
CCOC(=O)c1c(NC(=O)c2ccc(C)cc2)sc2c1CCCCC2 | inactive: 1.97%
N#Cc1ccccc1NC(=O)CSc1nc(-c2ccccc2)cc(C(F)(F)F)c1C#N | inactive: -10.1%
CCc1ccc(N2CC(c3nnc(NC(=O)c4ccco4)s3)CC2=O)cc1 (stereo unspecified) | inactive: -4.13%
COc1cc(Cl)c(C)cc1NC(=O)c1cc(S(=O)(=O)N2CCCC2)ccc1F | inactive: 8.68%
Cc1ccc(Nc2nc(-c3ccccc3)nc3ccccc23)cc1 | inactive: 0.808%
Cc1ccc(-n2cnc3cc(C(=O)NCCC4=CCCCC4)ccc32)c(C)c1 | inactive: 5.09%
CCOC(=O)c1c(NC(=O)/C(C#N)=C/c2ccc(OC)cc2)sc2c1CCC2 | inactive: 6.44%
COc1ccc(C(=O)N2CC(=O)Nc3ccc(Br)cc3C2c2ccc(F)cc2)cc1OC (stereo unspecified) | inactive: 0.505%
Cc1cccc(C)c1OCC(=O)N(Cc1ccccc1F)C1CCS(=O)(=O)C1 (stereo unspecified) | inactive: -16.3%
CCc1ccc(NC(=O)c2sc(-n3nc(C)c(CCC(C)C)c3C)nc2C)cc1 | inactive: -6.12%

SMILES | activity change, negative = inhibition
COc1ccc(NC(=O)c2ccc3oc(=O)c(S(=O)(=O)c4ccc(F)cc4)cc3c2)cc1OC | inactive: 1.24%
CCOc1ccccc1NC(=O)c1ccc2c(c1)CCN2S(C)(=O)=O | inactive: -3.38%
COc1cc(C2c3c(-c4cc(C)ccc4O)n[nH]c3C(=O)N2Cc2cccnc2)cc(OC)c1OC (stereo unspecified) | inactive: -0.431%
CCn1cc2nc(SCC(=O)Nc3cc(OC)ccc3OC)n(Cc3ccc(Cl)cc3)c(=O)c2n1 | inactive: -17.5%
O=C(Nc1ccc(OC(F)(F)F)cc1)c1cc2c(=O)n3ccccc3nc2s1 | inactive: -8.52%
CCS(=O)(=O)N1CCc2cc(C(=O)Nc3cc([N+](=O)[O-])ccc3C)ccc21 | inactive: -2.36%
O=C(CCn1c(=O)c2cccn2c2cccnc21)N1CCN(c2ccc(F)cc2)CC1 | inactive: 0.316%
COc1ccccc1CCNC(=O)Cn1ccc2cc(S(=O)(=O)N3CCCCC3)ccc21 | inactive: -17.5%
CCCC(=O)Nc1nnc(SCc2cc(=O)n3ccccc3n2)s1 | inactive: 0%
COc1ccc(C(=O)Nc2ccc3nc(SCC(=O)N4CCCC4)sc3c2)cc1 | inactive: -10.3%
O=C(NC1CCCCC1)c1ccc2c(c1)N(Cc1ccccc1F)C(=O)c1ccccc1S2 | inactive: -0.905%
Cn1c(=O)c(=O)n(C)c2cc(S(=O)(=O)N3CCCC3C(=O)Nc3cccc(F)c3)ccc21 (stereo unspecified) | inactive: 2.6%
CCN(CCN(C)C)C(=O)Cn1ncc2c([nH]c3ccc(C)cc32)c1=O | inactive: 1.95%
Cc1ccc(CNC(=O)C2CCN(Cc3nc(-c4ccccc4C)oc3C)CC2)cc1 | inactive: 1.43%
Cc1ccn2c(Nc3ccccc3C)c(-c3ccncc3)nc2c1 | inactive: 4.77%
Cc1cccc(NC(=O)CSc2nnc(CNC(=O)c3cccc(C)c3)n2-c2ccccc2)c1 | inactive: -14.2%
CCCCn1c(CN2CCN(c3ccc(OC)cc3)CC2)nc2c1c(=O)[nH]c(=O)n2C | inactive: -3.11%
COc1ccc(-c2noc(CN(C(=O)c3ccccc3Cl)C(C)C)n2)cc1 | inactive: -11%
Cc1ccccc1Cn1c(-c2cccs2)nc2ccccc21 | inactive: -0.771%
Cc1ccc2nc(CSc3nnc(NC(=O)CC(C)C)s3)cc(=O)n2c1 | inactive: -12.9%
Cc1ccc(Cn2c(CN3CCC(C(=O)NCc4cccnc4)CC3)cc3ccccc32)cc1 | inactive: -0.121%
CCOc1ccc(CNC(=O)CCC(=O)N2Cc3ccccc3Oc3ncccc32)cc1 | inactive: -7.17%
COc1ccc(OC)c(NC(=O)CSc2c3c(nc4cc(Cl)ccc24)CCCC3)c1 | inactive: 3.21%
NC(=O)CSc1nc2cc3c(cc2c(=O)n1CCCCCC(=O)NCc1ccc2c(c1)OCO2)OCO3 | inactive: -9.21%

SMILES | activity change, negative = inhibition
CC(=O)c1cccc(NC(=O)CCS(=O)(=O)c2ccc3c(c2)n(C)c(=O)c(=O)n3C)c1 | inactive: -12.7%
O=C(Nc1ccccc1C(F)(F)F)C1(S(=O)(=O)c2ccc(Cl)cc2)CC1 | inactive: 3.59%
CN1CC(=O)N(CC(=O)Nc2cccc(C#N)c2)c2ccccc2C1=O | inactive: 5.53%
COc1ccc(OC)c(NC(=O)C2CCCN(S(=O)(=O)c3ccc4[nH]c(=O)ccc4c3)C2)c1 (stereo unspecified) | inactive: -5.64%
COc1ccc(-c2cn3c(n2)sc2cc(C(=O)NCC(C)c4ccccc4)ccc23)cc1 (stereo unspecified) | inactive: -3.96%
Cc1ccc(CCNC(=O)c2cnc3c(C)cccn3c2=O)cc1 | inactive: 0.762%
Cc1c(Cl)cccc1NC(=O)Nc1nnc(N(C)C2CCCCC2)s1 | inactive: -6.49%
CCCCCCNC(=O)CCc1c(C)nc2nc(-c3cc(OC)cc(OC)c3)nn2c1C | inactive: -3.12%
Cc1ccc(C(=O)c2cn(Cc3cc(C)ccc3C)c3nc(C)ccc3c2=O)cc1 | inactive: -29.6%
CCOCCCNC(=O)C(NC(=O)C1CCC(C)CC1)C(C)C (stereo unspecified) | inactive: 1.21%
CN(C1CCCCC1)S(=O)(=O)c1ccc2c(c1)c(=O)c(C(=O)N1CCN(c3ccc(F)cc3)CC1)cn2C | inactive: 0.133%
CC(C)c1cc(C(=O)NCc2ccc(F)cc2)no1 | inactive: -9.03%
CCS(=O)(=O)n1nc(-c2ccco2)nc1NCc1ccc(C(C)C)cc1 | inactive: -1.68%
CCc1ccccc1NC(=O)c1nn(-c2ccc(C)cc2)c(=O)c2c1c1ccccc1n2C | inactive: -23.2%
CC(=O)Nc1ccc(NC(=O)C(NC(=O)C2CCC(C)CC2)C(C)C)cc1 (stereo unspecified) | inactive: 4.31%
COc1ccc(C)cc1NC(=O)C1CCC(CNS(=O)(=O)c2ccc3c(c2)CCCC(=O)N3)CC1 (stereo unspecified) | inactive: -24.5%
Cc1ccc(-n2cnc3cc(C(=O)NC4CCCCCC4)ccc32)c(C)c1 | inactive: -25.8%
CCc1ccc(Cn2nnc3c(=O)[nH]c(C4CCCN(C(=O)c5cccc(Cl)c5)C4)nc32)cc1 (stereo unspecified) | inactive: -6.23%
O=C(Nc1ccc(F)cc1)c1ccc(CN2CC(=O)N3CCCCC3C2=O)cc1 (stereo unspecified) | inactive: -1.42%
Cc1cc(C)cc(NC(=O)Cn2nc(N3CCN(c4ccccc4)CC3)ccc2=O)c1 | inactive: -15.8%
CC(=O)c1c(C)n(S(=O)(=O)c2ccc(Cl)cc2)c2ccc(NS(=O)(=O)c3ccc(Cl)cc3)cc12 | inactive: -4.46%
CC(C)c1ccc(OCC(=O)Nc2cc(-c3ccccc3)no2)cc1 | inactive: -8.18%
COc1ccc(S(=O)(=O)NCCc2sc(-c3cccnc3)nc2C)cc1OC | inactive: -0.534%
COc1cc(CN(C(=O)c2ccccc2Br)c2ccccn2)cc(OC)c1OC | inactive: -0.445%
